# About 64,000 (15%) of roughly 420,000 compounds were called active. The inconclusive results got no clear call from the source; some entries with a clear call stand among them for comparison. Calls follow the shape of the dose curve; as a rule, active = well fitted inhibition curve with a large enough effect; inconclusive = small, poorly fitted or top-dose-only effect; inactive = flat fitted curve, though single readings scatter. Potencies of inconclusive entries are left out as doubtful fits.
# Assay: qHTS for Inhibitors of human tyrosyl-DNA phosphodiesterase 1 (TDP1): qHTS in cells in absence of CPT; also: nearly all actives have a fitted effect of over 55% in size
# Conditions: DT40 Tdp1-/- hTDP1 cells, no CPT, ATP luminescence, 48 h; activity change, negative = growth inhibition: at 46.2 µM (top of the series)
# Procedure, shortened: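 Chicken DT40 Tdp1-/- cells complemented with human TDP1, screened without camptothecin (DMSO vehicle only), 400 cells/well. Compounds pin-transferred, cells incubated at 37 °C for at least 48 hr. Growth read as ATP-dependent luminescence (CellTiter-Glo, 30 min at RT).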
# % is scaled to controls: 0 for no effect and ±100 for the full control effect; potency is read from the fitted curve at half-maximal effect; tags tell the direction and shape of the fitted curve.
SMILES,Potency,"activity change, negative = growth inhibition"
COc1cccc(C2=CC(=O)C[C@H](c3ccc(Cl)cc3)C2)c1OC,"inconclusive [inhibitor, partial curve]",
CC1(C(=O)NCCc2c[nH]c3ccccc23)CCN1Cc1ccccc1OC(F)F (stereo not given),"inconclusive [inhibitor, partial curve, poor fit]",
O=C(CSc1ccccc1)Nc1nc2ccccc2[nH]1,active: 20.6 µM,
CCS(=O)(=O)Nc1ccc(C2=NN(C(=O)c3ccco3)C(c3cccs3)C2)cc1 (stereo not given),"inconclusive [inhibitor, partial curve]",
CCC12C(=O)C(CC)(C(c3ccccc3)=C1c1ccccc1)[C@@H]1C(=O)N(c3ccccc3)C(=O)C12 (stereo not given in full),"inconclusive [inhibitor, single point]",
CCOc1cccc(C(=O)NC(=S)Nc2ccc(N3CCCC3)cc2)c1,"inconclusive [inhibitor, partial curve]",
COc1ccc(C(c2nnnn2CS(=O)(=O)c2ccc(C)cc2)N2CCN(Cc3ccccc3)CC2)cc1 (stereo not given),"inconclusive [inhibitor, single point]",
O=C(Cn1c(=O)oc2cc(S(=O)(=O)N3CCCCCC3)ccc21)Nc1ccc(F)cc1F,,inconclusive: -30.3% [inhibitor]
Cc1ccc(C)c(Cn2c(CO)nc3ccccc32)c1,"inconclusive [inhibitor, single point]",
CC(=O)Nc1ccc(N2CCN(Cc3ccccc3F)CC2)cc1,,inactive: -15.8%
CN(c1ccccc1)S(=O)(=O)c1nnc(NC(=O)COc2ccccc2)s1,"inconclusive [inhibitor, single point]",
CCOC(=O)c1cc2c(=O)n3ccccc3nc2n(Cc2ccco2)c1=NC(=O)c1ccc(C)c(C)c1,"inconclusive [inhibitor, partial curve, poor fit]",
CCCSc1cc(N2CCCC2)nc(-c2ccccc2)n1,,inactive: -14.8%
COc1cccc(/C=N/NC(=O)c2ccc(CN3c4cccc5cccc(c45)S3(=O)=O)cc2)c1,,inactive: -12.6%
O=C(c1ccc(S(=O)(=O)N2CCOCC2)cc1)N(c1ccc(F)cc1)C1C=CS(=O)(=O)C1 (stereo not given),,inactive: -20%
O=C(Nc1ncc2c(n1)-c1ccccc1CC2)c1ccccc1,"inconclusive [inhibitor, single point]",
O=C(NNC(=O)c1cc(OCC(F)(F)F)ccc1OCC(F)(F)F)c1cccc(C(F)(F)F)c1,"inconclusive [inhibitor, partial curve]",
CCOc1ncccc1C(=O)N1CCN(S(=O)(=O)c2ccccc2)CC1,"inconclusive [inhibitor, single point]",
CN(C(=O)Cn1cnc2onc(-c3ccc(F)cc3)c2c1=O)c1ccccc1Cl,"inconclusive [inhibitor, partial curve, poor fit]",
Cc1ccc2nc(N(CCCN(C)C)C(=O)CN3C(=O)c4ccccc4C3=O)sc2c1,,inactive: -2.59%
COCCNc1nc(NCc2cccc(OC)c2)c2sccc2n1,active: 18.4 µM,
O=C(CN1C(=O)C2C3CC(C(Br)C3Br)C2C1=O)Nc1ccc(C(=O)O)cc1 (stereo not given),,inactive: 0.0945%
CCCn1c(=S)[nH]c2cc(C(=O)N3CCCC(C(=O)OCC)C3)ccc2c1=O (stereo not given),active: 20.6 µM,
COc1ccc(-c2cn3cccnc3n2)cc1NC(=O)C(C)Oc1ccccc1 (stereo not given),"inconclusive [inhibitor, single point]",

SMILES,Potency,"activity change, negative = growth inhibition"
COc1cccc2c1OCC([C@@H]1C[C@H]3CN(Cc4cccc(Cl)c4)C(=O)[C@]34CCCN14)=C2,"inconclusive [inhibitor, single point]",
Cc1ccc(-n2c(=O)c3ccc(C(=O)NCc4ccco4)cc3n(CC(=O)Nc3ccccc3C(F)(F)F)c2=O)cc1,,inactive: 1.08%
Cc1cc2[nH]c(=O)c(=O)[nH]c2cc1S(=O)(=O)NCC(C)c1ccccc1 (stereo not given),,inactive: -0.129%
Cc1cc(N2CCCC2)ccc1NC(=O)COc1ccc(Cl)cc1,"inconclusive [inhibitor, single point]",
CC(C)CC(=O)NC(c1ccccc1)c1c(O)ccc2ccccc12 (stereo not given),"inconclusive [inhibitor, single point]",
COc1ccccc1C(=O)NCC(=O)OCC(=O)Nc1ccc2[nH]c(=O)[nH]c2c1,,inactive: 0.216%
CCC(C)c1ccc(OCc2ccc(C(=O)O)o2)cc1 (stereo not given),,inactive: 8.09%
Cc1ccc(NC(=O)c2nc[nH]c2C(=O)N2CCN(C(=O)OC(C)(C)C)CC2)cc1,"inconclusive [inhibitor, single point]",
CC(=O)N1CCC2(CC1)CC(=O)c1cc(OCC(=O)NCc3ccc(C)cc3)ccc1O2,,inactive: -39.2%
Cc1occc1-c1nnc(SCC(=O)N2CCOCC2)n1Cc1ccco1,,inactive: -7.75%
CNc1ncnc2c1ncn2-c1ccccc1,"inconclusive [inhibitor, single point]",
CCc1nc(NCCO)c(C#N)c2c1CCCC2,,inactive: 2.76%
NC(=O)Cn1cc(/C=N\NS(=O)(=O)c2ccc(F)cc2)c2ccccc21,active: 23.1 µM,
CC(C)N(C(=O)[C@H]1C[C@H](CC(=O)NCC23CC4CC(CC(C4)C2)C3)C(=O)N2CCc3c([nH]c4ccc(Cl)cc34)[C@]12C)C(C)C,active: 13 µM,
N/C(=N\c1nc2ccccc2o1)NC(=O)c1ccccc1F,"inconclusive [inhibitor, single point]",
Cc1cccc(C(=O)c2c(N)sc3c2CCC(C)C3)c1 (stereo not given),"inconclusive [inhibitor, single point]",
COc1cc(-c2noc(C3CCCN(C(=O)c4c(F)cccc4F)C3)n2)cc(OC)c1OC (stereo not given),active: 20.6 µM,
CCN(CC)CCN(C(=O)/C=C/c1cccs1)c1nc2ccc(F)cc2s1,"inconclusive [inhibitor, single point]",
C/C(CC(=O)Nc1ccc(Cl)c(Cl)c1)=N\NC(N)=S,"inconclusive [inhibitor, single point]",
FC(F)(F)Oc1ccccc1C(c1nnnn1Cc1ccccc1)N1CCN(C/C=C/c2ccccc2)CC1 (stereo not given),"inconclusive [inhibitor, single point]",
COc1cc(CC(=O)OCC(=O)Nc2sccc2C(N)=O)cc(OC)c1OC,active: 16.4 µM,
CCCN(CCC)C(=O)Cn1c(SCc2cccc(C(F)(F)F)c2)nc2cccnc21,"inconclusive [inhibitor, single point]",
COc1ccc(C(=O)N2CCN(c3ccc(F)cc3)CC2)cc1S(=O)(=O)NC1CC1,"inconclusive [inhibitor, single point]",
c1cncc(-c2nnc3n2C2(CCCCC2)Cc2ccccc2-3)c1,,inactive: -8.67%

SMILES,Potency,"activity change, negative = growth inhibition"
S=c1[nH]ncn1-c1ccccn1,,inactive: -20.6%
O=C(c1ccc(OCC2CCCO2)cc1)N1CCN(S(=O)(=O)c2cccc(F)c2)CC1 (stereo not given),"inconclusive [inhibitor, single point]",
O=C(NC1(C(F)(F)F)C(=O)Nc2c1c(=O)[nH]c(=O)n2-c1ccccc1)c1ccccc1 (stereo not given),"inconclusive [inhibitor, single point]",
CCOC(=O)C1CCCN(C(=O)c2cc(=O)c3ccccc3o2)C1 (stereo not given),,inactive: -0.315%
Cc1nn(C)c2ncc(C(N)=O)c(Oc3cccnc3)c12,,inactive: -23.3%
N#CCc1c(C#N)c(N)nc(N2CCN(Cc3ccc4c(c3)OCO4)CC2)c1C#N,active: 11.6 µM,
Nc1cc(=O)[nH]c(SC/C=C/c2ccccc2)n1,"inconclusive [inhibitor, single point]",
Cc1cccc(C(=O)OCC(=O)N(C)c2ccccc2)c1C,,inconclusive: -30.3% [inhibitor]
C=CCCCCCCCCC(=O)O,,inactive: 6.94%
CCOC(=O)C1=CCN(S(=O)(=O)c2ccccc2F)C1c1cccc(C)c1 (stereo not given),"inconclusive [inhibitor, single point]",
O=S(=O)(c1ccccc1)N1CCN(C(c2ccccc2)c2ccc(OC(F)(F)F)cc2)CC1 (stereo not given),"inconclusive [inhibitor, partial curve]",
CCOc1ccc(C(=O)CSc2nnc3ccccn23)cc1,"inconclusive [inhibitor, single point]",
Cc1ccc2nc(Nc3nc(CSc4nnc(C)s4)cc(=O)[nH]3)nc(C)c2c1,active: 14.6 µM,
Cc1ccc(C(=O)NCC2CCCN2S(=O)(=O)c2cccs2)cc1C (stereo not given),"inconclusive [inhibitor, single point]",
CN(C)S(=O)(=O)c1ccc2oc(SCC(=O)c3c(N)n(C4CC4)c(=O)[nH]c3=O)nc2c1,active: 4.11 µM,
C/C(=N\NC(=O)COc1ccc2ccccc2c1)c1cccs1,"inconclusive [inhibitor, single point]",
CCOc1ccccc1N(CC(=O)N/N=C(\C)c1cccc(Br)c1)S(C)(=O)=O,"inconclusive [inhibitor, single point]",
CCCOc1cccc(NC(=O)c2c(-c3ccccc3)noc2C)c1,,inconclusive: -35.4% [inhibitor]
CS(=O)(=O)c1ccc(C(=O)OCC(=O)Nc2cc(C(F)(F)F)ccc2Cl)cc1[N+](=O)[O-],"inconclusive [inhibitor, single point]",
Cn1cnnc1SCC(=O)Nc1ccc(Cl)c(S(=O)(=O)N2CCOCC2)c1,,inactive: 0.733%
C=CCn1c(C)cc(C2=NNC(=NCC)SC2)c1C,active: 20.6 µM,
CC1(C(=O)NCc2ccc(F)c(F)c2)Cc2c(-c3cccc(C(N)=O)c3)ccnc2O1 (stereo not given),"inconclusive [inhibitor, single point]",
